According to patent US9828389B2, “Tetrazolinone compounds and their use as pesticides” (SUMITOMO CHEMICAL COMPANY, LIMITED, priority 2012, dated 2017):

tested on: cabbage moth (Plutella xylostella); experiment: whole plant or invertebrate; conditions: 120 h, read-out: mortality of insects
Protocol: Cabbage (green ball) was planted in a polyethylene cup and was grown until the third true leaf or the fourth true leaf was developed. To the cabbage was spread the above-mentioned testing dilutions in a ratio of 20 mL/cup. After the drug dilutions were dried, to a polyethylene cup (diameter 5.5 cm) covered with a filter paper on the bottom, the cabbage cut out from the root was installed and five heads of cabbage moth (Plutella xylostella) at the three instar larval stages were released into the cup and the cup was covered with the lid. The cup was held at 25° C. and after 5 days, the number of the surviving insects was counted and the mortality of insects was calculated by the following equation. Mortality of insects (%)=(Number of dead insects/Number of tested insects)×100

SMILES | mortality at 500 ppm
Cc1cc(C)n(-c2ccc(OCc3c(Cl)cccc3-n3nnn(C)c3=O)c(Cl)c2)n1 [Present compound 9, 1-{3-chloro-2-[2-chloro-4-(3,5-dimethyl-pyrazol-1-yl)-phenoxymethyl]-phenyl}-4-methyl-1,4-dihydrotetrazole-5-one] | 80%
Cc1ccn(-c2ccc(OCc3c(Cl)cccc3-n3nnn(C)c3=O)c(C)c2)n1 [Present compound 13, 1-{3-chloro-2-[2-methyl-4-(3-methyl-pyrazol-1-yl)-phenoxymethyl]-phenyl}-4-methyl-1,4-dihydrotetrazole-5-one] | 80%
Cc1cnn(-c2ccc(OCc3c(Cl)cccc3-n3nnn(C)c3=O)c(Cl)c2)c1 [Present compound 16, 1-{3-chloro-2-[2-chloro-4-(4-methyl-pyrazol-1-yl)-phenoxymethyl]-phenyl}-4-methyl-1,4-dihydrotetrazole-5-one] | 80%
Cc1ccn(-c2cc(C)c(OCc3c(C)cccc3-n3nnn(C)c3=O)c(C)c2)n1 [Present compound 31, 1-{3-methyl-2-[2,6-dimethyl-4-(3-methyl-pyrazol-1-yl)-phenoxymethyl]-phenyl}-4-methyl-1,4-dihydrotetrazole-5-one] | 80%
CCn1ccc(-c2ccc(OCc3c(C)cccc3-n3nnn(C)c3=O)c(C)c2)n1 [Present compound 44, 1-{3-methyl-2-[2-methyl-4-(1-ethyl-1H-3-pyrazol-3-yl)-phenoxymethyl]-phenyl}-4-methyl-1,4-dihydrotetrazole-5-one] | 80%
CCc1cccc(-n2nnn(C)c2=O)c1COc1ccc(-n2nc(C)cc2C)cc1C [Present compound 50, 1-{3-ethyl-2-[2-methyl-4-(3,5-dimethyl-pyrazol-1-yl)-phenoxymethyl]-phenyl}-4-methyl-1,4-dihydrotetrazole-5-one] | 80%
COc1cccc(-n2nnn(C)c2=O)c1COc1ccc(-c2cc(C)n(C)n2)cc1C [Present compound 90, 1-{3-methoxy-2-[2-methyl-4-(1,5-dimethyl-1H-pyrazol-3-yl)-phenoxymethyl]-phenyl}-4-methyl-1,4-dihydrotetrazole-5-one] | 80%
C#CCn1cc(C)c(-c2ccc(OCc3c(OC)cccc3-n3nnn(C)c3=O)c(C)c2)n1 [Present compound 143, 1-(2-{4-[4-methyl-1-(2-propynyl)-1H-pyrazol-3-yl)-2-methyl-phenoxymethyl}-3-methoxy-phenyl)-4-methyl-1,4-dihydrotetrazole-5-one] | 80%
CCOc1cccc(-n2nnn(C)c2=O)c1COc1ccc(-c2nn(C)c(Cl)c2C)cc1C [Present compound 210, 1-{3-ethoxy-2-[2-methyl-4-(5-chloro-1,4-dimethyl-1H-pyrazol-3-yl)-phenoxymethyl]-phenyl}-4-methyl-1,4-dihydrotetrazole-5-one] | 80%

tested on: common house mosquito (Culex pipiens pallens); experiment: whole plant or invertebrate; conditions: 192 h, read-out: mortality of insects
Protocol: The above-mentioned drug solutions 0.7 mL were added to an ion-exchange water 100 mL so that the active ingredient concentration was set to 3.5 ppm. Twenty (20) last instar larvae of common house mosquito (Culex pipiens pallens) were released into the dilutions and after 8 day, the number of the dead insects was counted.
The mortality of insects was calculated by the following equation. Mortality of insects (%)=(Number of dead insects/Number of tested insects)×100

SMILES | mortality at 3.5 ppm
Cc1cc(C)n(-c2ccc(OCc3c(Cl)cccc3-n3nnn(C)c3=O)c(Cl)c2)n1 [Present compound 9, 1-{3-chloro-2-[2-chloro-4-(3,5-dimethyl-pyrazol-1-yl)-phenoxymethyl]-phenyl}-4-methyl-1,4-dihydrotetrazole-5-one] | 100%
CCc1cccc(-n2nnn(C)c2=O)c1COc1cc(C)c(-n2ccc(C)n2)cc1C [Present compound 146, 1-{3-ethyl-2-[2,5-dimethyl-4-(3-methyl-pyrazol-1-yl)-phenoxymethyl]-phenyl}-4-methyl-1,4-dihydrotetrazole-5-one] | 100%
Cc1cc(-c2nn(C)c(Cl)c2C)ccc1OCc1c(-n2nnn(C)c2=O)cccc1C(F)(F)F [Present compound 209, 1-{2-[2-methyl-4-(5-chloro-1,4-dimethyl-1H-pyrazol-3-yl)-phenoxymethyl]-3-trifluoromethyl-phenyl}-4-methyl-, 4-dihydrotetrazole-5-one] | 100%
